# Laboratory results: the supplement of paper PMC8728848
# This is one part of the list.
# Key:
# Experiment in all cases: glycan array binding signal (z-score within array); higher = stronger binding
# Conditions in all cases: glycan notation: IUPAC condensed, linker removed
# [1] = target: Fuc(a1-2)[GalNAc(a1-3)]Gal(b1-4)GlcNAc(b1-3)Gal(b1-4)GlcNAc(b1-3)Gal(b1-4)GlcNAc
# Method in brief: (§1)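 From the Consortium for Functional Glycomics database, 3228 arrays were curated, keeping only those whose protein sequence was available. Binding is given as a within-array Z-score averaged across arrays sharing a protein sequence and across linkers. Negative Z-scores can be read as non-binding.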
# [2] = target: Fuc(a1-2)[GalNAc(a1-3)]Gal(b1-4)GlcNAc(b1-3)GalNAc
# Method in brief: as §1
# [3] = target: Fuc(a1-2)[GalNAc(a1-3)]Gal(b1-4)GlcNAc(b1-3)[Fuc(a1-2)[GalNAc(a1-3)]Gal(b1-4)GlcNAc(b1-6)]GalNAc
# Method in brief: as §1
# [4] = target: Fuc(a1-2)[GalNAc(a1-3)]Gal(b1-4)GlcNAc(b1-6)GalNAc
# Method in brief: as §1
# [5] = target: Fuc(a1-2)[GalNAc(a1-3)]Gal(b1-4)[Fuc(a1-3)]GlcNAc
# Method in brief: as §1
# [6] = target: Fuc(a1-2)[GalNAc(a1-3)]Gal(b1-4)[Fuc(a1-3)]GlcNAc(b1-3)GalNAc
# Method in brief: as §1
# [7] = target: Fuc(a1-2)[GalNAc(a1-4)]Gal(b1-4)GlcNAc
# Method in brief: as §1
# [8] = target: Fuc(a1-2)[GalNAc(b1-3)]Gal
# Method in brief: as §1
# [9] = target: Fuc(a1-2)[Neu5Ac(bond)]Gal(b1-3)GlcNAc(b1-3)Gal(b1-4)Glc
# Method in brief: as §1
# Fuc(a1-3)GlcNAc = target: Fuc(a1-3)GlcNAc
# Method in brief: as §1
# Fuc(a1-3)GlcNAc6S = target: Fuc(a1-3)GlcNAc6S
# Method in brief: as §1
# [10] = target: Fuc(a1-3)[3dGal(b1-4)]Glc
# Method in brief: as §1
# [11] = target: Fuc(a1-3)[3dGal(b1-4)]GlcNAc(b1-3)Gal
# Method in brief: as §1
# [12] = target: Fuc(a1-3)[Gal(b1-4)]Glc6S
# Method in brief: as §1
# [13] = target: Fuc(a1-3)[Gal(b1-4)]GlcNAc
# Method in brief: as §1
# [14] = target: Fuc(a1-3)[Gal(b1-4)]GlcNAc(b1-2)Man
# Method in brief: as §1
# [15] = target: Fuc(a1-3)[Gal(b1-4)]GlcNAc(b1-2)Man(a1-3)[Fuc(a1-3)[Gal(b1-4)]GlcNAc(b1-2)Man(a1-6)]Man(b1-4)GlcNAc(b1-4)GlcNAc
# Method in brief: as §1
# [16] = target: Fuc(a1-3)[Gal(b1-4)]GlcNAc(b1-2)Man(a1-3)[Fuc(a1-3)[Gal(b1-4)]GlcNAc(b1-2)Man(a1-6)]Man(b1-4)GlcNAc(b1-4)[Fuc(a1-6)]GlcNAc
# Method in brief: as §1
# [17] = target: Fuc(a1-3)[Gal(b1-4)]GlcNAc(b1-3)Gal(b1-3)[Fuc(a1-4)]GlcNAc
# Method in brief: as §1
# [18] = target: Fuc(a1-3)[Gal(b1-4)]GlcNAc(b1-3)Gal(b1-4)Glc
# Method in brief: as §1
# [19] = target: Fuc(a1-3)[Gal(b1-4)]GlcNAc(b1-3)Gal(b1-4)[Fuc(a1-3)]Glc
# Method in brief: as §1
# [20] = target: Fuc(a1-3)[Gal(b1-4)]GlcNAc(b1-3)Gal(b1-4)[Fuc(a1-3)]GlcNAc
# Method in brief: as §1
# [21] = target: Fuc(a1-3)[Gal(b1-4)]GlcNAc(b1-3)Gal(b1-4)[Fuc(a1-3)]GlcNAc(b1-3)Gal(b1-4)[Fuc(a1-3)]GlcNAc
# Method in brief: as §1
# [22] = target: Fuc(a1-3)[Gal(b1-4)]GlcNAc(b1-3)GalNAc
# Method in brief: as §1
# [23] = target: Fuc(a1-3)[Gal(b1-4)]GlcNAc(b1-3)[Fuc(a1-2)]Gal(b1-4)Glc
# Method in brief: as §1
# [24] = target: Fuc(a1-3)[Gal(b1-4)]GlcNAc(b1-3)[Fuc(a1-3)[Gal(b1-4)]GlcNAc(b1-6)]Gal(b1-4)Glc
# Method in brief: as §1
# [25] = target: Fuc(a1-3)[Gal(b1-4)]GlcNAc(b1-4)Gal(b1-4)[Fuc(a1-3)]GlcNAc
# Method in brief: as §1
# [26] = target: Fuc(a1-3)[Gal(b1-4)]GlcNAc(b1-4)Gal(b1-4)[Fuc(a1-3)]GlcNAc(b1-4)Gal(b1-4)[Fuc(a1-3)]GlcNAc
# Method in brief: as §1
# [27] = target: Fuc(a1-3)[Gal(b1-4)]GlcNAc(b1-6)GalNAc
# Method in brief: as §1
# [28] = target: Fuc(a1-3)[Gal(b1-4)]GlcNAc(b1-6)[Gal(b1-3)GlcNAc(b1-3)]Gal(b1-4)Glc
# Method in brief: as §1
# [29] = target: Fuc(a1-3)[Gal(b1-4)]GlcNAc6S
# Method in brief: as §1
# [30] = target: Fuc(a1-3)[Gal3S(b1-4)]Glc
# Method in brief: as §1
# [31] = target: Fuc(a1-3)[Gal3S(b1-4)]GlcNAc
# Method in brief: as §1
# [32] = target: Fuc(a1-3)[Gal3S(b1-4)]GlcNAc(b1-3)Gal
# Method in brief: as §1
# [33] = target: Fuc(a1-3)[Gal3S(b1-4)]GlcNAc6S
# Method in brief: as §1
# [34] = target: Fuc(a1-3)[Gal3S(b1-4)]GlcNAc6S(b1-3)Gal(b1-4)Glc
# Method in brief: as §1
# [35] = target: Fuc(a1-3)[Gal6S(b1-4)]GlcNAc(b1-3)Gal(b1-4)Glc
# Method in brief: as §1
# [36] = target: Fuc(a1-3)[GalNAc(b1-4)]GlcNAc
# Method in brief: as §1
# [37] = target: Fuc(a1-3)[GalNAc(b1-4)]GlcNAc6S
# Method in brief: as §1
# Fuc(a1-4)GlcNAc = target: Fuc(a1-4)GlcNAc
# Method in brief: as §1
# Fuc(a1-6)GlcNAc = target: Fuc(a1-6)GlcNAc
# Method in brief: as §1
# Fuc(b1-3)GlcNAc = target: Fuc(b1-3)GlcNAc
# Method in brief: as §1
# Gal(a1-2)Gal = target: Gal(a1-2)Gal
# Method in brief: as §1
# Gal(a1-3)Gal = target: Gal(a1-3)Gal
# Method in brief: as §1
# Gal(a1-3)Gal(b1-3)GlcNAc = target: Gal(a1-3)Gal(b1-3)GlcNAc
# Method in brief: as §1
binder,measurement,setting,value
"CLEC5A (Homo sapiens), Q9NY25 (protein) MNWHMIISGLIVVVLKVVGMTLFLLYFPQIFNKSNDGFTTTRSYGTVSQIFGSSSPSPNGFITTRSYGTVCPKDWEFYQARCFFLSTSESSWNESRDFCKGKGSTLAIVNTPEKLKFLQDITDAEKYFIGLIYHREEKRWRWINNSVFNGNVTNQNQNFNCATIGLTKTFDAASCDISYRRICEKNAK",glycan array binding signal (z-score),[1],-0.237
same,glycan array binding signal (z-score),[2],-0.193
same,glycan array binding signal (z-score),[3],0.006
same,glycan array binding signal (z-score),[4],-0.068
same,glycan array binding signal (z-score),[5],-0.006
same,glycan array binding signal (z-score),[6],2.38
same,glycan array binding signal (z-score),[7],-0.085
same,glycan array binding signal (z-score),[8],-0.234
same,glycan array binding signal (z-score),[9],-0.32
same,glycan array binding signal (z-score),Fuc(a1-3)GlcNAc,-0.109
same,glycan array binding signal (z-score),Fuc(a1-3)GlcNAc6S,-0.32
same,glycan array binding signal (z-score),[10],-0.32
same,glycan array binding signal (z-score),[11],0.644
same,glycan array binding signal (z-score),[12],0.031
same,glycan array binding signal (z-score),[13],-0.028
same,glycan array binding signal (z-score),[14],-0.15
same,glycan array binding signal (z-score),[15],-0.446
same,glycan array binding signal (z-score),[16],-0.058
same,glycan array binding signal (z-score),[17],-0.411
same,glycan array binding signal (z-score),[18],-0.031
same,glycan array binding signal (z-score),[19],-0.32
same,glycan array binding signal (z-score),[20],0.024
same,glycan array binding signal (z-score),[21],-0.241
same,glycan array binding signal (z-score),[22],0.155
same,glycan array binding signal (z-score),[23],-0.32
same,glycan array binding signal (z-score),[24],-0.32
same,glycan array binding signal (z-score),[25],0.685
same,glycan array binding signal (z-score),[26],-0.282
same,glycan array binding signal (z-score),[27],0.142
same,glycan array binding signal (z-score),[28],-0.158
same,glycan array binding signal (z-score),[29],1.18
same,glycan array binding signal (z-score),[30],-0.243
same,glycan array binding signal (z-score),[31],-0.166
same,glycan array binding signal (z-score),[32],-0.32
same,glycan array binding signal (z-score),[33],-0.068
same,glycan array binding signal (z-score),[34],0.162
same,glycan array binding signal (z-score),[35],-0.127
same,glycan array binding signal (z-score),[36],-0.093
same,glycan array binding signal (z-score),[37],-0.137
same,glycan array binding signal (z-score),Fuc(a1-4)GlcNAc,11.1
same,glycan array binding signal (z-score),Fuc(a1-6)GlcNAc,0.933
same,glycan array binding signal (z-score),Fuc(b1-3)GlcNAc,-0.337
same,glycan array binding signal (z-score),Gal(a1-2)Gal,0.202
same,glycan array binding signal (z-score),Gal(a1-3)Gal,0.778
same,glycan array binding signal (z-score),Gal(a1-3)Gal(b1-3)GlcNAc,-0.035
